Common to all, as to assay: NCI anticancer screen, dose series, 48 h
The subject of experiment [1] is CAKI-1 renal.
Experiment [2] relates to SNB-19 CNS.
For experiment [3], the system named is COLO 205 colon.
Experiment [4] deals with HCT-116 colon.
Experiment [5] has as its system MDA-MB-435.
Experiment [6] relates to UACC-62 melanoma.

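All cell lines were grown in 96-well plates and treated with compound for 48 hours. TGI: total growth inhibition.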 Not every entry of the source has a single result; some have several. The other results are left out here. The source may hold further records. Records of one sample usually come from different ranges of test concentrations, which the source does not state; a value can be the end of its range.

Turning to `Cc1ccc2oc(=O)c3c(O)c4cccc(OC5OC(C)C6O[C@@H](c7ccccc7)OC6C5OC5OC(C)C(O)C(O)C5O)c4c4oc(=O)c1c2c34` (stereo partly specified), the TGI in experiment [1] was 690 nM and 22.5 µM; in experiment [2] it was 320 nM and 7.99 µM; in experiment [3], 1.78 µM and > 100 µM; in experiment [4] it was 1.21 µM and > 23.5 µM.

With `O=C1C(N2CCN(CCOCCO)CC2)=C(Cl)C(=O)c2ncccc21`, the TGI in experiment [5] is 3.35 µM and 34.7 µM.

On to `COc1cc(/C=C/C(=O)CC(=O)/C=C/c2cc(OC)c(O)c(OC)c2)cc(OC)c1O`, for which the TGI in experiment [6] was 8.09 µM and > 100 µM.

The values above are taken from PubChem BioAssay (NCI).
